Measured values as given in patent publication US20230331823A1 (HENRY M JACKSON FOUNDATION FOR THE ADVANCEMENT OF MILITARY …, published 2023).
Where two headings read alike, the source gives them in different places.

What was measured:
[1] = target: SARS-CoV-2 WA-1 Spike on pseudovirions (SARS-CoV-2); test: cell-based or functional assay
[2] = target: SARS-CoV-2 WA-1 Spike on pseudovirions (SARS-CoV-2); test: cell-based or functional assay; remark: listed apart in the source

B1: ShAb01H02K (ShAb01Hole-02Knob) (bispecific antibody)
chain 1: ARVDQTPRSVTKETGESLTINCVLRDSNCALSSTHWYRKKSGSTNEERILQGRRYVETVNSGSKSFSLRINDLRVEDSGTYRCKVYWGNSWQDKFCPGLGSYEYGDGTAVTVNSREPKSCDKGLEVLFQGP[no letters for human IgG1 Fc with Y407T (EU numbers)]
chain 2: ARVDQTPQTITKETGESLTINCVLRDSNCALASTDWYRKKSGSTNEESISKGGRYVETVNSGSKSFSLRINDLTVEDSGTYRCNAWDSWETRQLKCDYDVYGGGTVVTVNSREPKSCDKGLEVLFQGP[no letters for human IgG1 Fc with T366Y (EU numbers)]
[1]
  pseudovirus neutralization IC50: < 0.02 µg/mL
[2]
  pseudovirus neutralization IC50: < 0.023 µg/mL
  pseudovirus neutralization IC80: 0.055 µg/mL

B2: BiShAb21a (ShAb02 VNAR-25aa-ShAb01 VNAR-3c-Fc) (bispecific antibody)
chain: ARVDQTPQTITKETGESLTINCVLRDSNCALASTDWYRKKSGSTNEESISKGGRYVETVNSGSKSFSLRINDLTVEDSGTYRCNAWDSWETRQLKCDYDVYGGGTVVTVNGGGGSGGGGSGGGGSGGGGSGGGGSARVDQTPRSVTKETGESLTINCVLRDSNCALSSTHWYRKKSGSTNEERILQGRRYVETVNSGSKSFSLRINDLRVEDSGTYRCKVYWGNSWQDKFCPGLGSYEYGDGTAVTVNSREPKSCDKGLEVLFQ[no letters for human IgG1 Fc and a few adjoining residues]
[1]
  pseudovirus neutralization IC50: 0.02 µg/mL
[2]
  pseudovirus neutralization IC50: 0.024 µg/mL
  pseudovirus neutralization IC80: 0.042 µg/mL
